Source: patent publication US12384801B2, “Benzothiophene, thienopyridine and thienopyrimidine derivatives for the modulation of sting” (CTXT PTY LTD, priority 2019, dated 2025)

These molecules were tested against human STING (R232H) (Homo sapiens, UniProt Q86WV6) (assay: Differential scanning fluorimetry (DSF), huSTING (R232H)). Details: compound 100 μM, 2 μM protein, Tm with ligand minus Tm of protein alone (1% DMSO).
Assay type: binding
Procedure: Data were analyzed using “Meltdown analysis” protocol described by Rosa (2015).
Work on `Cc1cccc2sc(C(=O)O)c(-c3nc4cc(C(N)=O)ccc4n3CCn3c(-c4c(C(=O)O)sc5cccc(C)c45)nc4cc(C(N)=O)ccc43)c12` (single isomer, unassigned) [Example 15.1, 3,3′-(Ethane-1,2-diylbis(5-carbamoyl-1H-benzo[d]imidazole-1,2-diyl))bis(4-methylbenzo[b]thiophene-2-carboxylic acid)] yielded a ΔTm at 100 µM of 6.6 °C. For `NC(=O)c1ccc2c(c1)nc(-c1c(C(=O)O)sc3c(F)ccc(Cl)c13)n2CCn1c(-c2c(C(=O)O)sc3c(F)ccc(Cl)c23)nc2cc(C(N)=O)ccc21` (single isomer, unassigned) [Example 2.1, 3,3′-(Ethane-1,2-diylbis(5-carbamoyl-1H-benzo[d]imidazole-1,2-diyl))bis(4-chloro-7-fluorobenzo[b]thiophene-2-carboxylic acid)], the ΔTm at 100 µM was 11.8 °C. For `COc1cccc2sc(C(=O)O)c(-c3nc4cc(C(N)=O)ccc4n3CCn3c(-c4c(C(=O)O)sc5cccc(OC)c45)nc4cc(C(N)=O)ccc43)c12` (single isomer, unassigned) [Example 5.2, 3,3′-(Ethane-1,2-diylbis(5-carbamoyl-1H-benzo[d]imidazole-1,2-diyl))bis(4-methoxybenzo[b]thiophene-2-carboxylic acid)], the ΔTm at 100 µM was 11.3 °C. With `NC(=O)c1ccc2c(c1)nc(-c1c(C(=O)O)sc3cccc(Cl)c13)n2CCn1c(-c2c(C(=O)O)sc3cccc(Cl)c23)nc2cc(C(N)=O)ccc21` (single isomer, unassigned) [Example 1.2, 3,3′-(Ethane-1,2-diylbis(5-carbamoyl-1H-benzo[d]imidazole-1,2-diyl))bis(4-chlorobenzo[b]thiophene-2-carboxylic acid)] the “DSF huSTING (R232H) ΔTm” value was −4.3 °C. Work on `CCOC(=O)c1sc2cccc(Cl)c2c1-c1nc2cc(C(N)=O)ccc2n1CCn1c(-c2c(C(=O)OCC)sc3cccc(Cl)c23)nc2cc(C(N)=O)ccc21` [Example A1, Diethyl 3,3′-(ethane-1,2-diylbis(5-carbamoyl-1H-benzo[d]imidazole-1,2-diyl))bis(4-chlorobenzo[b]thiophene-2-carboxylate)] yielded a ΔTm at 100 µM of 18.9 °C. In the case of `COc1cccc2sc(C(=O)O)c(-c3nc4cc(C(N)=O)ccc4n3CCn3c(-c4c(C(=O)O)sc5cccc(OC)c45)nc4cc(C(N)=O)ccc43)c12` (single isomer, unassigned) [Example 5.1, 3,3′-(Ethane-1,2-diylbis(5-carbamoyl-1H-benzo[d]imidazole-1,2-diyl))bis(4-methoxybenzo[b]thiophene-2-carboxylic acid)], the “DSF huSTING (R232H) ΔTm” value is reported as 7.51 °C. For `COc1c(C(N)=O)ccc2c1nc(-c1c(C(=O)O)sc3cccc(Cl)c13)n2CCn1c(-c2c(C(=O)O)sc3cccc(Cl)c23)nc2c(OC)c(C(N)=O)ccc21` (single isomer, unassigned) [Example 22.2, 3,3′-(Ethane-1,2-diylbis(5-carbamoyl-4-methoxy-1H-benzo[d]imidazole-1,2-diyl))bis(4-chlorobenzo[b]thiophene-2-carboxylic acid)], the “DSF huSTING (R232H) ΔTm” value was 28.13 °C. `NC(=O)c1ccc2c(c1)nc(-c1c(C(=O)O)sc3c(F)ccc(Br)c13)n2CCn1c(-c2c(C(=O)O)sc3c(F)ccc(Br)c23)nc2cc(C(N)=O)ccc21` (single isomer, unassigned) [Example 20.1, 3,3′-(Ethane-1,2-diylbis(5-carbamoyl-1H-benzo[d]imidazole-1,2-diyl))bis(4-bromo-7-fluorobenzo[b]thiophene-2-carboxylic acid)] was tested, and the “DSF huSTING (R232H) ΔTm” value was 14.94 °C. For `NC(=O)c1ccc2c(c1)nc(-c1c(C(=O)O)sc3cccc(Cl)c13)n2CCCCn1c(-c2c(C(=O)O)sc3cccc(Cl)c23)nc2cc(C(N)=O)ccc21` [Example 3, 3,3′-(Butane-1,4-diylbis(5-carbamoyl-1H-benzo[d]imidazole-1,2-diyl))bis(4-chlorobenzo[b]thiophene-2-carboxylic acid)], the ΔTm at 100 µM was -0.15 °C. `NC(=O)c1ccc2c(c1)nc(-c1c(C(=O)O)sc3ccccc13)n2CCn1c(-c2c(C(=O)O)sc3ccccc23)nc2cc(C(N)=O)ccc21` [Example 9, 3,3′-(Ethane-1,2-diylbis(5-carbamoyl-1H-benzo[d]imidazole-1,2-diyl))bis(benzo[b]thiophene-2-carboxylic acid)] showed a ΔTm at 100 µM of 1.03 °C. For `COc1ccc(F)c2sc(C(=O)O)c(-c3nc4cc(C(N)=O)ccc4n3CCn3c(-c4c(C(=O)O)sc5c(F)ccc(OC)c45)nc4cc(C(N)=O)ccc43)c12` (single isomer, unassigned) [Example 13.2, 3,3′-(Ethane-1,2-diylbis(5-carbamoyl-1H-benzo[d]imidazole-1,2-diyl))bis(7-fluoro-4-methoxybenzo[b]thiophene-2-carboxylic acid)], the “DSF huSTING (R232H) ΔTm” value was −2.9 °C. For `NC(=O)c1ccc2c(c1)nc(-c1c(C(=O)O)sc3c(F)ccc(Cl)c13)n2CCn1c(-c2c(C(=O)O)sc3c(F)ccc(Cl)c23)nc2cc(C(N)=O)ccc21` (single isomer, unassigned) [Example 2.2, 3,3′-(Ethane-1,2-diylbis(5-carbamoyl-1H-benzo[d]imidazole-1,2-diyl))bis(4-chloro-7-fluorobenzo[b]thiophene-2-carboxylic acid)], the “DSF huSTING (R232H) ΔTm” value was 6.9 °C. `NC(=O)c1ccc2c(c1)nc(-c1c(C(=O)O)sc3cccc(Cl)c13)n2CCCn1c(-c2c(C(=O)O)sc3cccc(Cl)c23)nc2cc(C(N)=O)ccc21` (single isomer, unassigned) [Example 4.1, 3,3′-(Propane-1,3-diylbis(5-carbamoyl-1H-benzo[d]imidazole-1,2-diyl))bis(4-chlorobenzo[b]thiophene-2-carboxylic acid)] was tested, and the “DSF huSTING (R232H) ΔTm” value was −2.0 °C. In the case of `CCOc1cccc2sc(C(=O)O)c(-c3nc4cc(C(N)=O)ccc4n3CCn3c(-c4c(C(=O)O)sc5cccc(OCC)c45)nc4cc(C(N)=O)ccc43)c12` [Example 24, 3,3′-(Ethane-1,2-diylbis(5-carbamoyl-1H-benzo[d]imidazole-1,2-diyl))bis(4-ethoxybenzo[b]thiophene-2-carboxylic acid)], the ΔTm at 100 µM is reported as 0.81 °C. With `CCOC(=O)c1sc2cccc(Cl)c2c1-c1nc2c(OC)c(C(N)=O)ccc2n1CCn1c(-c2c(C(=O)OCC)sc3cccc(Cl)c23)nc2c(OC)c(C(N)=O)ccc21` [Example 21, Diethyl 3,3′-(ethane-1,2-diylbis(5-carbamoyl-4-methoxy-1H-benzo[d]imidazole-1,2-diyl))bis(4-chlorobenzo[b]thiophene-2-carboxylate)] the ΔTm at 100 µM was 37.6 °C. For `COc1nccc2sc(C(=O)O)c(-c3nc4cc(C(N)=O)ccc4n3CCn3c(-c4c(C(=O)O)sc5ccnc(OC)c45)nc4cc(C(N)=O)ccc43)c12` [Example 7, 3,3′-(Ethane-1,2-diylbis(5-carbamoyl-1H-benzo[d]imidazole-1,2-diyl))bis(4-methoxythieno[3,2-c]pyridine-2-carboxylic acid)], the ΔTm at 100 µM was -0.34 °C. In the case of `NC(=O)c1ccc2c(c1)nc(-c1c(C(=O)O)sc3c(F)ccc(Br)c13)n2CCn1c(-c2c(C(=O)O)sc3c(F)ccc(Br)c23)nc2cc(C(N)=O)ccc21` (single isomer, unassigned) [Example 20.2, 3,3′-(Ethane-1,2-diylbis(5-carbamoyl-1H-benzo[d]imidazole-1,2-diyl))bis(4-bromo-7-fluorobenzo[b]thiophene-2-carboxylic acid)], the “DSF huSTING (R232H) ΔTm” value is reported as −4.15 °C. With `NC(=O)c1ccc2c(c1)nc(-c1c(C(=O)O)sc3cccc(Br)c13)n2CCn1c(-c2c(C(=O)O)sc3cccc(Br)c23)nc2cc(C(N)=O)ccc21` (single isomer, unassigned) [Example 11.2, 3,3′-(Ethane-1,2-diylbis(5-carbamoyl-1H-benzo[d]imidazole-1,2-diyl))bis(4-bromobenzo[b]thiophene-2-carboxylic acid)] the “DSF huSTING (R232H) ΔTm” value was −1.64 °C. With `COc1ccc(F)c2sc(C(=O)O)c(-c3nc4cc(C(N)=O)ccc4n3CCn3c(-c4c(C(=O)O)sc5c(F)ccc(OC)c45)nc4cc(C(N)=O)ccc43)c12` (single isomer, unassigned) [Example 13.1, 3,3′-(Ethane-1,2-diylbis(5-carbamoyl-1H-benzo[d]imidazole-1,2-diyl))bis(7-fluoro-4-methoxybenzo[b]thiophene-2-carboxylic acid)] the “DSF huSTING (R232H) ΔTm” value was 11.81 °C. With `COc1c(C(N)=O)ccc2c1nc(-c1c(C(=O)O)sc3cccc(Cl)c13)n2CCn1c(-c2c(C(=O)O)sc3cccc(Cl)c23)nc2c(OC)c(C(N)=O)ccc21` (single isomer, unassigned) [Example 22.1, 3,3′-(Ethane-1,2-diylbis(5-carbamoyl-4-methoxy-1H-benzo[d]imidazole-1,2-diyl))bis(4-chlorobenzo[b]thiophene-2-carboxylic acid)] the ΔTm at 100 µM was 30.6 °C. With `NC(=O)c1ccc2c(c1)nc(-c1c(C(=O)O)sc3cccc(C(F)(F)F)c13)n2CCn1c(-c2c(C(=O)O)sc3cccc(C(F)(F)F)c23)nc2cc(C(N)=O)ccc21` (single isomer, unassigned) [Example 19.2, 3,3′-(Ethane-1,2-diylbis(5-carbamoyl-1H-benzo[d]imidazole-1,2-diyl))bis(4-(trifluoromethyl)benzo[b]thiophene-2-carboxylic acid)] the “DSF huSTING (R232H) ΔTm” value was 1.85 °C. In the case of `NC(=O)c1ccc2c(c1)nc(-c1c(C(=O)O)sc3cccc(Br)c13)n2CCn1c(-c2c(C(=O)O)sc3cccc(Br)c23)nc2cc(C(N)=O)ccc21` (single isomer, unassigned) [Example 11.1, 3,3′-(Ethane-1,2-diylbis(5-carbamoyl-1H-benzo[d]imidazole-1,2-diyl))bis(4-bromobenzo[b]thiophene-2-carboxylic acid)], the “DSF huSTING (R232H) ΔTm” value is reported as 10.45 °C. `N#Cc1cccc2sc(C(=O)O)c(-c3nc4cc(C(N)=O)ccc4n3CCn3c(-c4c(C(=O)O)sc5cccc(C#N)c45)nc4cc(C(N)=O)ccc43)c12` [Example 17, 3,3′-(Ethane-1,2-diylbis(5-carbamoyl-1H-benzo[d]imidazole-1,2-diyl))bis(4-cyanobenzo[b]thiophene-2-carboxylic acid)] showed a ΔTm at 100 µM of -3.79 °C. With `Cc1cccc2sc(C(=O)O)c(-c3nc4cc(C(N)=O)ccc4n3CCn3c(-c4c(C(=O)O)sc5cccc(C)c45)nc4cc(C(N)=O)ccc43)c12` (single isomer, unassigned) [Example 15.2, 3,3′-(Ethane-1,2-diylbis(5-carbamoyl-1H-benzo[d]imidazole-1,2-diyl))bis(4-methylbenzo[b]thiophene-2-carboxylic acid)] the “DSF huSTING (R232H) ΔTm” value was 10.23 °C.
